# Values joined by “and” are separate entries in the source; they are usually repeats but may differ in a detail not shown here. Equal entries are not always repeated. In all, about 400,000 compounds went through this assay and about 2,200 (0.55%) were called active. Another 1% or so got no clear call; they are omitted. The call rests on the fitted dose curve; in most records, active means well fitted inhibition curve with a large enough effect; inconclusive means small, poorly fitted or top-dose-only effect, or another doubt; inactive means no such curve, though single readings can be large or run the other way. The list shows a part of the results, in another mix than the full data. The source holds several records for some structures; these can differ, active in one and inactive in another.
# Molecular target: DNA polymerase kappa (Homo sapiens) (UniProt Q9UBT6)
# Sequence of UniProt Q9UBT6 (Q9UBT6 whole entry, looked up): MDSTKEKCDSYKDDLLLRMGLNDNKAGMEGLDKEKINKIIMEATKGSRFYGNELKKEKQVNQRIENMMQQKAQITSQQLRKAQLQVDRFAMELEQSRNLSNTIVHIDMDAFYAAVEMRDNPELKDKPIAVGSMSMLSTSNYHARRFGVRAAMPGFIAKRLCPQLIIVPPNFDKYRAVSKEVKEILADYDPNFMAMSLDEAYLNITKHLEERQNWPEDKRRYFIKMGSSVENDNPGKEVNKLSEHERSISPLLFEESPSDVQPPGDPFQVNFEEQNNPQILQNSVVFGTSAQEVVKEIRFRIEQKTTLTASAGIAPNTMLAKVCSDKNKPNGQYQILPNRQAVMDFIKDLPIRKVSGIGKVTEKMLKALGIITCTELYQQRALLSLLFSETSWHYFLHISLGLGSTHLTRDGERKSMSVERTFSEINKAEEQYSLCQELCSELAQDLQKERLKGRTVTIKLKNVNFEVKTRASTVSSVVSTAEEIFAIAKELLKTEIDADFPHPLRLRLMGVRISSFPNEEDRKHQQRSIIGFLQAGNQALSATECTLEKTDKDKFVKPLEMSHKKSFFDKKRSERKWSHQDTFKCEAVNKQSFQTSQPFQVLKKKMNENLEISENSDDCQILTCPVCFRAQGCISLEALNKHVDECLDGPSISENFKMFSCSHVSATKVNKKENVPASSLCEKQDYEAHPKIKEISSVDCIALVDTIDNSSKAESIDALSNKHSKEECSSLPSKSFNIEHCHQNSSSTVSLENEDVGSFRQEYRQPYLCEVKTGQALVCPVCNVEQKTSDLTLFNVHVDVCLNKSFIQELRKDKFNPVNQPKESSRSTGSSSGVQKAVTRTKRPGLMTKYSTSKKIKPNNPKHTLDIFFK
# Assay: qHTS for Inhibitors of Polymerase Kappa
# Conditions: purified Pol kappa, fluorescent DNA synthesis assay, 10 min; series mostly up to 107 µM; activity, negative = inhibition: at the top concentration
# Procedure: The processing and repair of DNA interstrand crosslinks (ICL) in eukaryotic cells are extremely complex, potentially involving multiple DNA repair and damage tolerance pathways, including homologous recombination, nucleotide excision repair, translesion synthesis (TLS), and cell cycle checkpoints.
# To that end, in a collaboration between the Oregon Health & Science University and the NIH Chemical Genomics Center a 1536-well high-throughput screen was developed. This fluorescent screen was assayed against the NIH Molecular Libraries Small Molecule Repository (MLSMR) to discover inhibitors of Pol Kappa.
# NIH Chemical Genomics Center [NCGC]
# NIH Molecular Libraries Probe Centers Network [MLPCN]
# Assay Submitter (PI): Stephen Lloyd, Oregon Health & Science University
# Three microliters of reagents (buffer in column 3 and 4 as negative control and 10 nM Pol kappa in columns 1, 2, and 5-48) were dispensed into a 1536-well black solid-bottom plate. Compounds (23 nL) were transferred via Kalypsys pin tool equipped with 1536-pin array. The plates were then incubated for 15 min at room temperature, and 1 uL substrate (50 nM final concentration) were then added to start the reaction and kinetically read twice at 0 min and 10 min on the Viewlux reader
# On the % scale 0 is the no-effect control and ±100 the full control effect; potency means the concentration at half of the fitted maximal effect.
Compound,"activity, negative = inhibition",Potency
CCOC(=O)c1c(C)[nH]c(C(=O)COC(=O)C(C)N2C(=O)C3CCCCC3C2=O)c1C (stereo unspecified),inactive: -4.73%,–
COc1ccc(-c2cc(=O)c3c(O)cc(O[C@@H]4O[C@H](CO[C@@H]5O[C@@H](C)[C@H](O)[C@@H](O)[C@H]5O)[C@@H](O)[C@H](O)[C@H]4O)cc3o2)cc1O,inactive: -17.6%,–
COc1cc(NC(=O)C2CCN(c3cnccn3)CC2)cc(OC)c1,inactive: -3.92%,–
Cn1cc(C=C2C(=O)Nc3cccnc32)c2ccccc21,inactive: -8.16% [at 60.1 µM],–
Cc1nn(-c2ccc(N3CCCCC3)nn2)c(C)c1CCC(=O)NCc1ccc(F)cc1,inactive: 26.1%,–
COc1ccc(C2CC(=O)Oc3cc(C)cc(C)c32)cc1 (stereo unspecified),inactive: 9.09%,–
CC(=O)NC(CC(=O)O)C(=O)O (stereo unspecified),–,inactive
CC(C)(O)[C@H](O)COc1c2ccoc2cc2oc(=O)ccc12,inactive: -17.3%,–
O=C(C=C(O)c1ccc(Cl)cc1)C(=O)NNC(=O)C(O)(c1ccccc1)c1ccccc1,inactive: -9.61%,–
CCOC(=O)Cn1c(=O)c2c(nc3n2CCCN3Cc2ccccc2)n(C)c1=O,inactive: -8.84%,–
NC(CSSCC(N)C(=O)O)C(=O)O (stereo unspecified),–,inactive
CC1CCCCC1NC(=O)COC(=O)c1c2c(nc3ccccc13)/C(=C/c1ccco1)CC2 (stereo unspecified),–,active: 10 µM
OCCOCCN1CCN(C(c2ccccc2)c2ccc(Cl)cc2)CC1 (stereo unspecified),inactive: -3.85%,–
COc1ccc(CNC(=O)c2nnn(CC(=O)Nc3cc(C)cc(C)c3)c2N)cc1,inactive: 8.68%,–
Cc1cc(SCC(=O)c2cccc([N+](=O)[O-])c2)nc(=O)[nH]1,–,active: 79.4 µM
O=C(O)c1ccccc1/C=N/NC(=O)c1cc(-c2ccco2)nc2ccccc12,–,active: 35.5 µM
CCOc1cccc2c1N[C@@H](c1ccc(C(=O)O)cc1)[C@H]1CC=C[C@@H]21,–,active: 3.98 µM
COc1ccc(-c2nc(Cn3c(=O)cc(C)c4c(C)nn(-c5ccccc5)c43)c(C)o2)cc1OC,inactive: 25.8%,–
C[C@@H]1O[C@@H](OC[C@H]2O[C@@H](Oc3c(-c4cccc(O)c4O)oc4cc(O)cc(O)c4c3=O)[C@H](O)[C@@H](O)[C@@H]2O)[C@H](O)[C@H](O)[C@H]1O,–,active: 7.08 µM
CN(C)CC[C@@H](c1ccc(Cl)cc1)c1ccccn1,–,inactive
CC(N)C12CC3CC(CC(C3)C1)C2 (stereo unspecified),–,inactive

Compound,"activity, negative = inhibition",Potency
CC(=O)OCC1=C(C(=O)O)N2C(=O)C(NC(=O)Cc3ccccc3)C2SC1 (stereo unspecified),–,active: 44.7 µM
CCn1c(C)nc2cc(C(=O)N/N=C/c3ccc(O)c(O)c3O)ccc21,–,active: 10 µM
COc1cccc(C(=O)c2cn(CC(=O)NCc3ccco3)c3nc(C)ccc3c2=O)c1,–,active: 89.1 µM
N[C@@H](C(=O)N[C@@H]1C(=O)N2C(C(=O)O)=C(Cl)CS[C@H]12)c1ccccc1,inactive: -3.96% [at 60.1 µM],–
Cc1cc(NC(=O)CN2CCC(C)CC2)nc2c1c(=O)oc1ccccc12,–,active: 89.1 µM
Cc1cc(=O)[nH]c2c(N=Nc3ccc(O)cc3)c(N)nn12,–,active: 89.1 µM
CN1\C(=C/C=C/C=C/C=[N+](C)C)C(C)(C)c2ccccc21,–,active: 50.1 µM
COC1C(OC(=O)/C=C/C=C/C=C/C=C/C(=O)O)CCC2(CO2)C1C1(C)OC1CC=C(C)C (stereo unspecified),inactive: -5.11% [at 60.1 µM],–
CSc1ccc(NC(=O)CSc2nc3[nH]c(=O)cc(O)c3s2)cc1,–,active: 56.2 µM
C=C(C)C(=O)Nc1cccc(C2=NOC3(C2)C[C@@H](C(N)=O)N(C(=O)c2ccc(Cl)cc2)C3)c1 (stereo partly specified),–,active: 35.5 µM
CC(C)NC[C@H](O)c1ccc(O)c(O)c1,–,inactive
COc1cc2oc(=O)ccc2cc1O,inactive: 13.8% [at 60.1 µM],–
Cc1cccc(-c2nn(C(=S)Nc3ccccc3)cc2-c2ccnc3ccccc23)n1,inactive: 13.6% [at 60.1 µM],–
COCCc1ccc(OCC(O)CNC(C)C)cc1 (stereo unspecified),–,inactive
COC(=O)c1cc(S(=O)(=O)NCC2CCN(Cc3cccc(F)c3)CC2)cn1C,–,inactive
O=C(NCCO)c1ccc2nc(-c3ccco3)c(-c3ccco3)nc2c1,–,active: 25.1 µM
COC(=O)[C@@H]1[C@H]2C[C@H]3c4[nH]c5ccccc5c4CCN3C[C@H]2CC[C@@H]1O,inactive: 2.71% [at 19.4 µM] and inactive: -1.17% [at 19.4 µM],–
CCOC(=O)C1=C(O)C(=O)N(Cc2ccccc2)C1,inactive: -15.9%,–
O=C1CCC[C@@H]2Cc3nc4ccc(O)cc4cc3[C@@H]3CCN1[C@H]23,inactive: -25%,–
CCOC(=O)c1sc2ccccc2c1S(=O)(=O)Nc1ccc(OC)c(Cl)c1,inactive: 24.5%,–
O=C(O)c1cc(-c2ccc(/C=C3\NC(=O)N(c4ccccc4)C3=O)o2)ccc1Cl,–,active: 44.7 µM

Compound,"activity, negative = inhibition",Potency
C[C@@H]1CC=C[C@@H]2[C@H]1C(=O)N(Cc1ccccc1)[C@H]2c1ccccc1Br,inactive: -4.49%,–
O=C(NCc1ccc(Cl)cc1)C1CCN(S(=O)(=O)c2ccc(F)cc2)CC1,inactive: 1.54%,–
CC[C@@]1(O)CC2CN(CCc3c([nH]c4ccccc34)[C@](C(=O)OC)(c3cc4c(cc3OC)N(C)C3[C@@](O)(C(=O)OC)C(OC(C)=O)[C@]5(CC)C=CCN6CC[C@@]43C65)C2)C1 (stereo partly specified),inactive: -13.1% [at 60.1 µM],–
CC/C(=C(\c1ccccc1)c1ccc(OCCN(C)C)cc1)c1ccccc1,–,inactive
Cc1noc(/C=C/c2ccc(-c3ccccc3Cl)o2)c1[N+](=O)[O-],inactive: 420%,–
COc1cccc2c1C(=O)c1c(O)c3c(c(O)c1C2=O)C[C@](O)(C(=O)CO)C[C@@H]3O[C@H]1C[C@H](N)[C@@H](O)[C@H](C)O1,inactive: -2.34% [at 60.1 µM],–
CCc1ccc(CNC(=O)C2CCN(c3nc4ccccc4nc3C(F)(F)F)CC2)cc1,inactive: 26.3%,–
CCSC[C@H](NC(=O)[C@H](C)N)C(=O)N[C@@H](CC(=O)O)C(=O)N[C@H](C(=O)N[C@@H](C)C(=O)N[C@H](C(=O)N[C@@H](CSCC)C(=O)N[C@H](C(=O)N[C@H](C(=O)N[C@@H](Cc1cnc[nH]1)C(=O)N[C@@H](CCCNC(=N)N)C(=O)N[C@@H](CC(C)C)C(=O)N[C@@H](C)C(=O)NCC(=O)N[C@@H](CC(C)C)C(=O)N[C@@H](CC(C)C)C(=O)N[C@@H](CO)C(=O)N[C@@H](CCCNC(=N)N)C(=O)N[C@@H](CO)C(=O)NCC(=O)NCC(=O)N[C@H](C(=O)N[C@H](C(=O)N[C@@H](CCCCN)C(=O)N[C@@H](CC(N)=O)C(=O)N[C@@H](CC(N)=O)C(=O)N[C@@H](Cc1ccccc1)C(=O)N[C@H](C(=O)N1CCC[C@H]1C(=O)N[C@H](C(=O)N[C@@H](CC(N)=O)C(=O)N[C@H](C(=O)NCC(=O)N[C@@H](CO)C(=O)N[C@@H](CCCCN)C(=O)N[C@@H](C)C(=O)N[C@@H](Cc1ccccc1)C(N)=O)C(C)C)[C@@H](C)O)C(C)C)C(C)C)C(C)C)[C@@H](C)O)C(C)C)[C@@H](C)O)[C@@H](C)O,inactive: 19.5% [at 60.1 µM],–
C=CC(C)(O)CCCC(C)CCCC(C)CCCC(C)C (stereo unspecified),–,inactive
CN1CCC[C@@H]1CCO[C@](C)(c1ccccc1)c1ccc(Cl)cc1,–,inactive
CC(C)=CCc1c2c(c3occ(-c4ccc(O)cc4)c(=O)c3c1O)C=CC(C)(C)O2,inactive: -15.9%,–
COC(=O)C1=C(C)NC(C)=C(C(=O)OCCN(C)Cc2ccccc2)C1c1cccc([N+](=O)[O-])c1 (stereo unspecified),–,inactive
Cc1oc2c(cc(NS(=O)(=O)c3ccc(C(C)C)cc3)c3ccccc32)c1C(=O)O,inactive: -37.2%,–
N[C@H](CCC(=O)NCC(=O)O)C(=O)O,–,inactive
CC1=CC(c2ccccc2)n2nc(N3C(=O)c4ccccc4C3=O)nc2N1 (stereo unspecified),–,active: 44.7 µM
O=C(C[C@H]1C/C=C\CC[C@H](Cc2ccc(F)cc2)C(=O)O[C@@H](c2ccccc2)CNC1=O)N[C@H](CO)Cc1ccccc1,inactive: -7.64%,–
CCC(C)C(N)C(=O)O (stereo unspecified),inactive: 0.427% [at 19.4 µM],–
O=C(N/N=C/C(Br)=C\c1ccccc1)c1n[nH]c2c1CCC2,inactive: -1.35%,–
COc1cc(NC(=O)CSc2ncc3c(n2)-c2ccc(Cl)cc2N(Cc2ccccc2)S3(=O)=O)cc(OC)c1,inactive: 23%,–
CC(O)C(N)C(=O)O (stereo unspecified),inactive: 6.26% [at 60.1 µM],–
H-TNEIVEEQYTPQSLATLESVFQELGKLTGPNSQ-OH,inactive: 19.7% [at 60.1 µM],–

Compound,"activity, negative = inhibition",Potency
CC(C)(C)c1ccc(N2C[C@@H](COc3ccc(C(=O)O)cc3)CC2=O)cc1,inactive: 19.5% [at 60.1 µM],–
Nc1nnc(CC(=O)N/N=C/c2ccc(-c3cccc(C(=O)O)c3)o2)s1,–,active: 25.1 µM
Cc1ccc2c(=O)c3ccccc3n(CCCN)c2c1C,inactive: 16% [at 60.1 µM],–
Cc1ccc(OCC(=O)c2c(N)n(C)c(=O)n(C)c2=O)c([N+](=O)[O-])n1,–,active: 35.5 µM
COC(=O)Cc1csc(N)n1,inactive: -8.58%,–
CCn1cc(C(=O)NCCc2ccc(OC)c(OC)c2)c(=O)c2cc(S(=O)(=O)N3CCOCC3)ccc21,inactive: 2.49%,–
CC(=O)Nc1ccc(SCCN2CC[C@@H](O)CCC2=O)cc1,inactive: -4.42%,–
CCC(=O)Nc1ccc2nc3c(=O)[nH]c(=S)[nH]c3nc2c1,–,active: 44.7 µM
CC(C)(CO)Cc1cc(C(C)(C)C)c(O)c(C(C)(C)C)c1,–,inactive
COc1ccc(-c2cc(=O)c3c(OC)c(OC)c(OC)cc3o2)cc1OC,inactive: 20.1% [at 60.1 µM],–
N#Cc1c(SCC(=O)Nc2nncs2)sc2c(O)cc(=O)[nH]c12,–,active: 8.91 µM
O=C(O)CCCCC1CCSS1 (stereo unspecified),–,active: 6.7 µM
C[C@@H]1O[C@@H](OC[C@H]2O[C@@H](Oc3c(-c4ccc(O)cc4)oc4cc(O)cc(O)c4c3=O)[C@H](O)[C@@H](O)[C@@H]2O)[C@H](O)[C@H](O)[C@H]1O,inactive: -15.5%,–
CCOC(=O)C1Oc2ccccc2C(c2ccc(OC)cc2)=C1C(=O)OC (stereo unspecified),inactive: 5.04%,–
O=C(O)c1ccc(-n2cccc2/C=C2/NC(=O)N(c3cccc(Cl)c3)C2=O)cc1,–,active: 15.8 µM
CC(CCc1ccccc1)NC(=O)C1CC1 (stereo unspecified),inactive: 33.3%,–
C=C1C(=O)O[C@@H]2[C@H]3O[C@]3(C)CCC=C(C)CC[C@@H]12,inactive: 5.13% [at 60.1 µM],–
CCC(C)n1ncn(-c2ccc(N3CCN(c4ccc(OCC5COC(Cn6cncn6)(c6ccc(Cl)cc6Cl)O5)cc4)CC3)cc2)c1=O (stereo unspecified),inactive: -22.7%,–

# From PubChem BioAssay AID588579 (National Center for Advancing Translational Sciences (NCATS), 2011)
